Measured values from patent US20030099944A1, “Combination therapy involving drugs which target cellular proteins and drugs which target pathogen-encoded proteins” (priority 1998, published 2003).

System: HSV-1 DNA replication
Type: cell-based, herpes simplex virus type 1

## O=C(O)CP(=O)(O)O [PAA, phosphonoacetic acid]
  fold viral DNA replication during 20 hours after release from PAA block: about 5 fold
